According to a collection of fitness landscapes (doi:10.1016/j.celrep.2020.107928):
In all, about 81,000 sequences were measured (“one-hybrid fitness for binding parS DNA”: median about -0.17, highest 2% from about 0.51 on). The list shows a part of the results.

B1: Caulobacter ParB omega fusion; a variant is named by its letters at X, in order, B8GW30 (parent)
chain: MESVVVGEPGMSEGRRGLGRGLSALLGEVDAAPAQAPGEQLGGSREAPIEILQRNPDQPRRTFREEDLEDLSNSIREKGVLQPILVRPSPDTAGEYQIVAGERAWRAAQRAGLKTVPIMVRELDDLAVLEIGIIENVQRADLNVLEEALSYKVLMEKFERTQENIAQTIGKSXSHVANXMRLLXLPDEVQSYLVSGELTAXHARAIAAAADPVALAKQIIEGGLSVRETEALARKAPNLSAGKSKGGRPPRVKDTDTQALESDLSSVLGLDVSIDHRGSTGTLTITYATLEQLDDLCNRLTRGI

Variants of: B1
Experiment: one-hybrid fitness for binding parS DNA (scaled: cognate 1, non-cognate 0); higher = stronger binding
Details: with parS DNA site
In short: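 Selection: bacterial one-hybrid in E. coli USO, HIS3 reporter with the site 19 bp from the promoter, 48 hours at 37°C on M9-minus-histidine plus 0.1 mM IPTG and 5 mM 3-AT. Libraries were Caulobacter ParB with four randomised specificity codons, sequenced on Illumina before and after selection. Fitness is the rescaled log change in variant-to-wild-type read ratio, anchored to the cognate and non-cognate sites.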

| Variant | one-hybrid fitness for binding parS DNA |
| --- | --- |
| AMII | ≤ 0.2 |
| FGCL | 0.26 |
| PGRC | ≤ 0.2 |
| PDWT | ≤ 0.2 |
| TMAR | ≤ 0.2 |
| FHLD | ≤ 0.2 |
| QVLP | ≤ 0.2 |
| RPFT | ≤ 0.2 |
| HRAM | ≤ 0.2 |
| RLVM | 0.295 |
| QLNK | ≤ 0.2 |
| WGAE | ≤ 0.2 |
| TDHG | ≤ 0.2 |
| APAF | ≤ 0.2 |
| PRAP | ≤ 0.2 |
| FQAC | ≤ 0.2 |
| IACG | ≤ 0.2 |
| FWST | ≤ 0.2 |
| CPRC | ≤ 0.2 |
| DTGI | ≤ 0.2 |
| NHGC | ≤ 0.2 |
| AIDE | ≤ 0.2 |
| ACRY | ≤ 0.2 |
| DCVS | ≤ 0.2 |

| Variant | one-hybrid fitness for binding parS DNA |
| --- | --- |
| QQRF | ≤ 0.2 |
| QCQK | ≤ 0.2 |
| PSDP | ≤ 0.2 |
| AMNT | ≤ 0.2 |
| GPYT | ≤ 0.2 |
| RQLG | 0.982 |
| ISTC | ≤ 0.2 |
| SPRL | ≤ 0.2 |
| KRRC | ≤ 0.2 |
| LVKY | ≤ 0.2 |
| SHFL | ≤ 0.2 |
| RGVV | ≤ 0.2 |
| FYLR | ≤ 0.2 |
| QAFT | ≤ 0.2 |
| EGAD | ≤ 0.2 |
| AYHN | ≤ 0.2 |
| ASMC | ≤ 0.2 |
| QLNV | ≤ 0.2 |
| MQLN | ≤ 0.2 |
| CYTT | ≤ 0.2 |
| RDAA | ≤ 0.2 |
| WIMT | ≤ 0.2 |
| GHRF | ≤ 0.2 |
| GVAS | ≤ 0.2 |

| Variant | one-hybrid fitness for binding parS DNA |
| --- | --- |
| KKVF | ≤ 0.2 |
| YPDV | ≤ 0.2 |
| NHVC | ≤ 0.2 |
| GCLG | ≤ 0.2 |
| HLNV | ≤ 0.2 |
| RMKC | 0.849 |
| QDAT | ≤ 0.2 |
| QPEC | ≤ 0.2 |
| HLDM | ≤ 0.2 |
| IHHG | ≤ 0.2 |
| RALK | ≤ 0.2 |
| RQDM | 0.324 |
| PTKC | ≤ 0.2 |
| FRGL | ≤ 0.2 |
| CYGT | ≤ 0.2 |
| AFDT | ≤ 0.2 |
| RWAT | 0.614 |
| DWDG | ≤ 0.2 |
| DYKY | ≤ 0.2 |
| NWES | ≤ 0.2 |
| PLGF | ≤ 0.2 |
| SEGW | ≤ 0.2 |
| HDTG | ≤ 0.2 |
| VWKD | ≤ 0.2 |

| Variant | one-hybrid fitness for binding parS DNA |
| --- | --- |
| RYRI | ≤ 0.2 |
| NFNV | ≤ 0.2 |
| DIYS | ≤ 0.2 |
| KSCK | ≤ 0.2 |
| YPYS | ≤ 0.2 |
| EMRQ | ≤ 0.2 |
| FKHI | ≤ 0.2 |
| PTLR | ≤ 0.2 |
| STWG | ≤ 0.2 |
| RSGR | ≤ 0.2 |
| IKTT | ≤ 0.2 |
| NYNI | ≤ 0.2 |
| GWWL | ≤ 0.2 |
| CEFG | ≤ 0.2 |
| LFLY | ≤ 0.2 |
| EPRN | ≤ 0.2 |
| MWSC | ≤ 0.2 |
| FNLI | ≤ 0.2 |
| HRLC | 0.225 |
| YDKC | ≤ 0.2 |
| ICCL | ≤ 0.2 |
| ATGK | ≤ 0.2 |
| LCCL | ≤ 0.2 |
| TNPR | ≤ 0.2 |

| Variant | one-hybrid fitness for binding parS DNA |
| --- | --- |
| VIKT | ≤ 0.2 |
| QIWS | ≤ 0.2 |
| RQQH | ≤ 0.2 |
| GWQT | ≤ 0.2 |
| AALA | ≤ 0.2 |
| CWTE | ≤ 0.2 |
| RTCK | ≤ 0.2 |
| QESG | ≤ 0.2 |
| GALG | ≤ 0.2 |
| RAEM | 0.246 |
| LDHT | ≤ 0.2 |
| FALY | ≤ 0.2 |
| NIIG | ≤ 0.2 |
| PAED | ≤ 0.2 |
| HWQT | ≤ 0.2 |
| PWDS | ≤ 0.2 |
| PGLA | ≤ 0.2 |
| TFML | ≤ 0.2 |
| FVIL | ≤ 0.2 |
| NNAI | ≤ 0.2 |
| DRYC | ≤ 0.2 |
| YIDS | ≤ 0.2 |
| PWHC | ≤ 0.2 |
| LHIC | ≤ 0.2 |

| Variant | one-hybrid fitness for binding parS DNA |
| --- | --- |
| NSGA | ≤ 0.2 |
| DVMR | ≤ 0.2 |
| LKKS | ≤ 0.2 |
| EYEW | ≤ 0.2 |
| HAIG | ≤ 0.2 |
| PIRL | ≤ 0.2 |
| LMNE | ≤ 0.2 |
| CFCT | ≤ 0.2 |
| TKKI | ≤ 0.2 |
| ASAP | ≤ 0.2 |
| MRRT | ≤ 0.2 |
| VWRI | ≤ 0.2 |
| VAFV | ≤ 0.2 |
| TWPP | ≤ 0.2 |
| PGMT | ≤ 0.2 |
| VCCG | ≤ 0.2 |
| HSHL | ≤ 0.2 |
| PTGV | ≤ 0.2 |
| CVRY | ≤ 0.2 |
| GISM | ≤ 0.2 |
| WSWC | ≤ 0.2 |
| RYVR | ≤ 0.2 |
| QCKK | ≤ 0.2 |
| HPAG | ≤ 0.2 |

| Variant | one-hybrid fitness for binding parS DNA |
| --- | --- |
| MESE | ≤ 0.2 |
| LCTM | ≤ 0.2 |
| VTND | ≤ 0.2 |
| SHKN | ≤ 0.2 |
| CSAT | ≤ 0.2 |
| QYMS | ≤ 0.2 |
| YWTY | ≤ 0.2 |
| DLSY | ≤ 0.2 |
| ARLD | ≤ 0.2 |
| VEPE | ≤ 0.2 |
| YTQC | ≤ 0.2 |
| CCTA | ≤ 0.2 |
| DTCT | ≤ 0.2 |
| PIWS | ≤ 0.2 |
| QLKM | ≤ 0.2 |
| HWWG | ≤ 0.2 |
| AFEL | ≤ 0.2 |
| PCND | ≤ 0.2 |
| PLWT | ≤ 0.2 |
| ATDV | ≤ 0.2 |
| ATSE | ≤ 0.2 |
| DCCS | ≤ 0.2 |
| FADS | ≤ 0.2 |
| TKRR | ≤ 0.2 |

| Variant | one-hybrid fitness for binding parS DNA |
| --- | --- |
| GGGG | ≤ 0.2 |
| MEKT | ≤ 0.2 |
| YLTV | ≤ 0.2 |
| GLYV | ≤ 0.2 |
| RLKE | ≤ 0.2 |
| DRFA | ≤ 0.2 |
| WQAH | ≤ 0.2 |
| PLTA | ≤ 0.2 |
| QFIW | ≤ 0.2 |
| FHRM | ≤ 0.2 |
| KIET | ≤ 0.2 |
| APRM | ≤ 0.2 |
| HYTS | ≤ 0.2 |
| ARNG | ≤ 0.2 |
| PPCI | ≤ 0.2 |
| NETT | ≤ 0.2 |
| ALTP | ≤ 0.2 |
| FITS | ≤ 0.2 |
| TECR | ≤ 0.2 |
| ALTK | ≤ 0.2 |
| SCMR | ≤ 0.2 |
| MGTI | ≤ 0.2 |
| RLMF | 0.246 |
| NCMT | ≤ 0.2 |

| Variant | one-hybrid fitness for binding parS DNA |
| --- | --- |
| GDSS | ≤ 0.2 |
| HPPF | ≤ 0.2 |
| YEWS | ≤ 0.2 |
| LKSC | ≤ 0.2 |
| TRFM | ≤ 0.2 |
| VAWR | ≤ 0.2 |
| LPIL | ≤ 0.2 |
| SWIV | ≤ 0.2 |
| TMAP | ≤ 0.2 |
| LDTA | ≤ 0.2 |
| NDRS | ≤ 0.2 |
| CEPM | ≤ 0.2 |
| RHCT | 0.766 |
| VRNN | ≤ 0.2 |
| LYTR | ≤ 0.2 |
| PTNY | ≤ 0.2 |
| GEWK | ≤ 0.2 |
| QHVQ | ≤ 0.2 |
| PGAG | ≤ 0.2 |
| YAWS | ≤ 0.2 |
| GWGC | ≤ 0.2 |
| PGRY | ≤ 0.2 |
| RRVG | 0.836 |
| TFHS | ≤ 0.2 |

| Variant | one-hybrid fitness for binding parS DNA |
| --- | --- |
| VLWR | ≤ 0.2 |
| AVDD | ≤ 0.2 |
| RLKG | 0.945 |
| TWDT | ≤ 0.2 |
| SHTV | ≤ 0.2 |
| QHTY | ≤ 0.2 |
| KSSK | ≤ 0.2 |
| GARY | ≤ 0.2 |
| RVIS | 0.981 |
| ICHR | ≤ 0.2 |
| YPKC | ≤ 0.2 |
| QDYR | ≤ 0.2 |
| MGHA | ≤ 0.2 |
| TNMT | ≤ 0.2 |
| RQVW | ≤ 0.2 |
| TQTI | ≤ 0.2 |
| NSWL | ≤ 0.2 |
| SQHR | ≤ 0.2 |
| NQGT | ≤ 0.2 |
| QILN | ≤ 0.2 |
| ETNS | ≤ 0.2 |
| WQSF | ≤ 0.2 |
| IRTV | ≤ 0.2 |
| REKT | 0.369 |

| Variant | one-hybrid fitness for binding parS DNA |
| --- | --- |
| GTYV | ≤ 0.2 |
| RLKW | 0.39 |
| GNGR | ≤ 0.2 |
| VKPH | ≤ 0.2 |
| EDPN | ≤ 0.2 |
| RCCE | 0.223 |
| MHTW | ≤ 0.2 |
| SSHW | ≤ 0.2 |
| LHTW | ≤ 0.2 |
| EKRT | ≤ 0.2 |
| QYHR | ≤ 0.2 |
| LMPR | ≤ 0.2 |
| MRCI | ≤ 0.2 |
| KFSG | ≤ 0.2 |
| WPEH | ≤ 0.2 |
| SNSA | ≤ 0.2 |
| RGMY | ≤ 0.2 |
| AFLT | ≤ 0.2 |
| KNES | ≤ 0.2 |
| EVHV | ≤ 0.2 |
| GYWM | ≤ 0.2 |
| HKYS | ≤ 0.2 |
| EPSP | ≤ 0.2 |
| NRKK | ≤ 0.2 |

| Variant | one-hybrid fitness for binding parS DNA |
| --- | --- |
| RWSN | 0.318 |
| PIGL | ≤ 0.2 |
| ECLT | ≤ 0.2 |
| HFLS | ≤ 0.2 |
| LTIY | ≤ 0.2 |
| SCTG | ≤ 0.2 |
| VCEG | ≤ 0.2 |
| RSRQ | ≤ 0.2 |
| KMRT | ≤ 0.2 |
| NQLC | ≤ 0.2 |
| PYVA | ≤ 0.2 |
| LETS | ≤ 0.2 |
| GANG | ≤ 0.2 |
| RQIS | 0.87 |
| LGAV | ≤ 0.2 |
| IDAS | ≤ 0.2 |
| WHRH | ≤ 0.2 |
| YGPC | ≤ 0.2 |
| TSLH | ≤ 0.2 |
| PQFA | ≤ 0.2 |
| PQDL | ≤ 0.2 |
| NIFG | ≤ 0.2 |
| FTSL | ≤ 0.2 |
| TYVN | ≤ 0.2 |

| Variant | one-hybrid fitness for binding parS DNA |
| --- | --- |
| NILS | ≤ 0.2 |
| TGYI | ≤ 0.2 |
| PRYF | ≤ 0.2 |
| CILG | ≤ 0.2 |
| RNRR | ≤ 0.2 |
| RGMD | ≤ 0.2 |
| MRQT | ≤ 0.2 |
| NYDR | ≤ 0.2 |
| PKSG | ≤ 0.2 |
| RMFC | 0.966 |
| VQMM | ≤ 0.2 |
| VCLI | ≤ 0.2 |
| TMAG | ≤ 0.2 |
| PKRN | ≤ 0.2 |
| GCDC | ≤ 0.2 |
| IQSR | ≤ 0.2 |
| GGTA | ≤ 0.2 |
| LWKN | ≤ 0.2 |
